Test results from PMC4239057.
Results are given in words; binding and its absence hold for the method and conditions named. Binding seen in cells or lysates may run through a third protein. Some binding calls cover weakened binding; strength is not graded here. For part of these data: Where a sequence is shown, tags or fusion partners need not be part of it.

The chains behind the UniProt entries cited, without tags or fusion partners. Residues count along the entry.
UniProt O54885, residues 22-114: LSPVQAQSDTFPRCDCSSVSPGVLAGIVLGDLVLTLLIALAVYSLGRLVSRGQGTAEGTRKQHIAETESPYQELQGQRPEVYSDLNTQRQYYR

Tests used:
[1] = molecular target: T1, GST-OCILRP2i (aa 1-57) (mouse) (UniProt Q9WVF9); assay: pull-down; GST or GST-fused protein on Glutathione-Sepharose 4B beads incubated 2 h at 4°C with lysate of EL4 cells stimulated 48 h with CD3/CD28 antibodies; 20 mM Tris-HCl pH 8.0, 200 mM NaCl, 1 mM EDTA, 0.5% Nonidet P-40; western blot with anti-DAP12 or anti-OCILRP2; only the target purified
T1 sequence: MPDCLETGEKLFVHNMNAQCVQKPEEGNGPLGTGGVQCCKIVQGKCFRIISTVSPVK

[2] = molecular target: T2, GST-OCILRP2 (full-length recombinant OCILRP2 protein) (mouse) (UniProt Q9WVF9); assay: as above
T2 sequence: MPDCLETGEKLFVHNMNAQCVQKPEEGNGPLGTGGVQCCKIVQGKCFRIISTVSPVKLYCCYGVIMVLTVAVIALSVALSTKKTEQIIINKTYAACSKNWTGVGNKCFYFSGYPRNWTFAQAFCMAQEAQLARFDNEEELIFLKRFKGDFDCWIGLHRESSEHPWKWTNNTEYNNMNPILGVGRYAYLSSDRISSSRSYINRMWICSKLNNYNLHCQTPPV

[3] = molecular target: T3, GST-OCILRP2e (aa 80-221) (mouse) (UniProt Q9WVF9); assay: as above
T3 sequence: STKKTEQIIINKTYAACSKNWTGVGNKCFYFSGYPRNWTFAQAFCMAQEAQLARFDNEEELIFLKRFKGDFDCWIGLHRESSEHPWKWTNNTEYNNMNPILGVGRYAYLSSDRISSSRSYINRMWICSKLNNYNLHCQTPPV

[4] = molecular target: T4, HA-OCILRP2 (mouse) (UniProt Q9WVF9); assay: co-IP; 293T cells co-transfected 48 h with pCDNA3-HA-OCILRP2 and pDsRed-C1-DAP12; precipitated with anti-HA or anti-DAP12 antibody or control IgG, protein A/G, 4°C; western blot
T4 sequence: T2 sequence

[5] = molecular target: GST-DAP12 (UniProt O54885); assay: pull-down; GST or GST-fused protein on Glutathione-Sepharose 4B beads incubated 2 h at 4°C with lysate of EL4 cells stimulated 48 h with CD3/CD28 antibodies; 20 mM Tris-HCl pH 8.0, 200 mM NaCl, 1 mM EDTA, 0.5% Nonidet P-40; western blot with anti-DAP12 or anti-OCILRP2; only the target purified
[6] = molecular target: DsRed-DAP12 (UniProt O54885); assay: co-IP; 293T cells co-transfected 48 h with pCDNA3-HA-OCILRP2 and pDsRed-C1-DAP12; precipitated with anti-HA or anti-DAP12 antibody or control IgG, protein A/G, 4°C; western blot

Question: Which binding [1] does the source give for DAP12 (from UniProt O54885 22-114) here?
Answer: no binding

Question: And the binding [2]?
Answer: binds

Question: And the binding [3]?
Answer: no binding

Question: With “DsRed-DAP12 (from UniProt O54885 22-114)” as the molecule, how does the binding [4] read?
Answer: binds

B1: OCILRP2 (protein, UniProt Q9WVF9-2 1-221)
chain: T2 sequence
Question: How did the binding [5] turn out when B1 was run?
Answer: binds

B2: HA-OCILRP2 (protein, UniProt Q9WVF9-2 1-221)
chain: T2 sequence
Question: Which binding [6] does the source give for B2 here?
Answer: binds
